{"source": "the supplement of paper PMC8728848", "test_in_all_cases": "glycan array binding signal (z-score within array); higher = stronger binding", "settings_in_all_cases": "glycan notation: IUPAC condensed, linker removed", "key": {"[1]": {"target": "GlcNAc(b1-3)[GlcNAc(b1-4)][GlcNAc(b1-6)]GlcNAc", "method_in_brief": "(§1)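 Arrays were curated from the Consortium for Functional Glycomics database, 3228 in total, and kept only where the protein sequence was available. Binding is expressed as a within-array Z-score. This score was averaged across arrays of the same protein sequence at different concentrations or buffers and across linkers, and negative values can be read as non-binding.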"}, "[2]": {"target": "GlcNAc(b1-3)[GlcNAc(b1-6)]Gal(b1-4)GlcNAc", "method_in_brief": "as §1"}, "[3]": {"target": "GlcNAc(b1-3)[GlcNAc(b1-6)]GalNAc", "method_in_brief": "as §1"}, "[4]": {"target": "GlcNAc(b1-4)Gal(b1-4)GlcNAc", "method_in_brief": "as §1"}, "GlcNAc(b1-4)GlcNAc": {"target": "GlcNAc(b1-4)GlcNAc", "method_in_brief": "as §1"}, "[5]": {"target": "GlcNAc(b1-4)GlcNAc(b1-4)GlcNAc", "method_in_brief": "as §1"}, "[6]": {"target": "GlcNAc(b1-4)GlcNAc(b1-4)GlcNAc(b1-4)GlcNAc(b1-4)GlcNAc", "method_in_brief": "as §1"}, "[7]": {"target": "GlcNAc(b1-4)GlcNAc(b1-4)GlcNAc(b1-4)GlcNAc(b1-4)GlcNAc(b1-4)GlcNAc", "method_in_brief": "as §1"}, "[8]": {"target": "GlcNAc(b1-4)[GlcNAc(b1-6)]GalNAc", "method_in_brief": "as §1"}, "[9]": {"target": "GlcNAc(b1-6)Gal(b1-4)GlcNAc", "method_in_brief": "as §1"}, "GlcNAc(b1-6)GalNAc": {"target": "GlcNAc(b1-6)GalNAc", "method_in_brief": "as §1"}, "[10]": {"target": "GlcNAc6S(b1-3)Gal(b1-4)GlcNAc", "method_in_brief": "as §1"}, "Kdn(a2-3)Gal(b1-3)GalNAc": {"target": "Kdn(a2-3)Gal(b1-3)GalNAc", "method_in_brief": "as §1"}, "Kdn(a2-3)Gal(b1-3)GlcNAc": {"target": "Kdn(a2-3)Gal(b1-3)GlcNAc", "method_in_brief": "as §1"}, "Kdn(a2-3)Gal(b1-4)Glc": {"target": "Kdn(a2-3)Gal(b1-4)Glc", "method_in_brief": "as §1"}, "Kdn(a2-3)Gal(b1-4)GlcNAc": {"target": "Kdn(a2-3)Gal(b1-4)GlcNAc", "method_in_brief": "as §1"}, "[11]": {"target": "Kdn(a2-3)Gal(b1-4)[Fuc(a1-3)]GlcNAc", "method_in_brief": "as §1"}, "Kdn(a2-6)Gal(b1-4)GlcNAc": {"target": "Kdn(a2-6)Gal(b1-4)GlcNAc", "method_in_brief": "as §1"}, "[12]": {"target": "Man(a1-2)Man(a1-2)Man(a1-3)Man", "method_in_brief": "as §1"}, "[13]": {"target": "Man(a1-2)Man(a1-2)Man(a1-6)[Man(a1-3)]Man", "method_in_brief": "as §1"}, "Man(a1-2)Man(a1-3)Man": {"target": "Man(a1-2)Man(a1-3)Man", "method_in_brief": "as §1"}, "[14]": {"target": "Man(a1-2)Man(a1-3)[Man(a1-2)Man(a1-6)]Man", "method_in_brief": "as §1"}, "[15]": {"target": "Man(a1-2)Man(a1-3)[Man(a1-2)Man(a1-6)]Man(a1-6)[Man(a1-2)Man(a1-2)Man(a1-3)]Man", "method_in_brief": "as §1"}}, "note": "The other results are listed elsewhere or left out."}
{"binder": "FliD (Clostridium difficile) (protein) MSSISPVRVTGLSGNFDMEGIIEASMIRDKEKVNKAKQDQQIVKWKQEIYRDIIKESKNLYDKYLNGDSPNSITNKKAYSATRITSSDESIIVAKGSAGAEKINYQFAVSQMAEPAKVTIKLNSSDPIVQQFPPNASGASSLNIGGVNIPISEQDTTSTIVSKINSLCADNDIRASYSEMTGELIISRKQTGSSSDIDLKVIGNDSLAGQIASDNGITFTTDASGTKSAVVYGKNLEADVTDDQGRVTHISKEQNSFKIDNIDYNVNSKGSAKLVSVTDTEEATKNMKAFVDDYNALMDKVYGLVTTKKSKDYPPLTDEQKDDMTTEEIEKWEKKAKEGILRNDDELRAFVEDIQSMFFGDADTIIALRKLGISEHENYNKKGQISFNADTFSKALIDDSDKVYKALAGYSSNYDDKGMFEKLKKIVFEYSGSSASKLTKKAGMENSSSASQNVYSKQIAEQERNISRLVEKMNDKEKRLYAKYSALESLLNKYSSQMNYFSQAQGN", "values": [{"measurement": "glycan array binding signal (z-score)", "setting": "[1]", "result": -0.259}, {"measurement": "glycan array binding signal (z-score)", "setting": "[2]", "result": -0.024}, {"measurement": "glycan array binding signal (z-score)", "setting": "[3]", "result": -0.188}, {"measurement": "glycan array binding signal (z-score)", "setting": "[4]", "result": -0.232}, {"measurement": "glycan array binding signal (z-score)", "setting": "GlcNAc(b1-4)GlcNAc", "result": -0.162}, {"measurement": "glycan array binding signal (z-score)", "setting": "[5]", "result": -0.054}, {"measurement": "glycan array binding signal (z-score)", "setting": "[6]", "result": -0.164}, {"measurement": "glycan array binding signal (z-score)", "setting": "[7]", "result": 0.011}, {"measurement": "glycan array binding signal (z-score)", "setting": "[8]", "result": -0.145}, {"measurement": "glycan array binding signal (z-score)", "setting": "[9]", "result": 0.038}, {"measurement": "glycan array binding signal (z-score)", "setting": "GlcNAc(b1-6)GalNAc", "result": -0.013}, {"measurement": "glycan array binding signal (z-score)", "setting": "[10]", "result": -0.077}, {"measurement": "glycan array binding signal (z-score)", "setting": "Kdn(a2-3)Gal(b1-3)GalNAc", "result": 0.086}, {"measurement": "glycan array binding signal (z-score)", "setting": "Kdn(a2-3)Gal(b1-3)GlcNAc", "result": -0.233}, {"measurement": "glycan array binding signal (z-score)", "setting": "Kdn(a2-3)Gal(b1-4)Glc", "result": -0.172}, {"measurement": "glycan array binding signal (z-score)", "setting": "Kdn(a2-3)Gal(b1-4)GlcNAc", "result": -0.204}, {"measurement": "glycan array binding signal (z-score)", "setting": "[11]", "result": 0.919}, {"measurement": "glycan array binding signal (z-score)", "setting": "Kdn(a2-6)Gal(b1-4)GlcNAc", "result": -0.101}, {"measurement": "glycan array binding signal (z-score)", "setting": "[12]", "result": -0.247}, {"measurement": "glycan array binding signal (z-score)", "setting": "[13]", "result": -0.014}, {"measurement": "glycan array binding signal (z-score)", "setting": "Man(a1-2)Man(a1-3)Man", "result": -0.195}, {"measurement": "glycan array binding signal (z-score)", "setting": "[14]", "result": -0.196}, {"measurement": "glycan array binding signal (z-score)", "setting": "[15]", "result": -0.075}]}
